According to the supplement of paper PMC3334620:
Over roughly 33,000 sequences, “E-score (-0.5 to 0.5)” has its median near -0.013; the highest 2% begin near 0.3. This is one part of the list.

These sequences were tested against T1, Msn1 (UniProt P22148) (assay: PBM E-score (8-mer binding enrichment) (E-score (-0.5 to 0.5)); higher = stronger / more preferred TF binding; most listed sequences are background and not binding sites). Settings: protein concentration: 200 nM; construct: GST-full length.
T1 sequence: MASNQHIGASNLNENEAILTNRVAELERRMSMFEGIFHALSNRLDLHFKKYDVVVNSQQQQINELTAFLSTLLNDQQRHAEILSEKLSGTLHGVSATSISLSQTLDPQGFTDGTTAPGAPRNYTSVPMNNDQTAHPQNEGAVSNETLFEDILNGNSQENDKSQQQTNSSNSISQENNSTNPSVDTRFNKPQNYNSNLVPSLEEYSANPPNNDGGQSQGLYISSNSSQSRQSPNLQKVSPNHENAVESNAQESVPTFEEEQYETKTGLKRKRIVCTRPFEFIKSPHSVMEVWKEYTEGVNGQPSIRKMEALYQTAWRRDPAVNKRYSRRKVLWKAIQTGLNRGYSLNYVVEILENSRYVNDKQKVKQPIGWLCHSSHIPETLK
Experimental: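 Universal 'all 10-mer' protein binding microarrays (Agilent AMADID 015681) probed with GST-tagged S. cerevisiae TFs (full-length or DBD) made by in vitro transcription/translation (PURExpress), about 100-200 nM. Bound TF was detected with fluorescent anti-GST. Each ungapped 8-mer (which stands for itself and its reverse complement) is scored by the PBM enrichment score (E-score), a modified Wilcoxon-Mann-Whitney statistic from -0.5 to +0.5, computed with the Universal PBM Analysis Suite. Scale: above 0.35 generally sequence-specific binding.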

Sequence	PBM E-score
GATACAAC	0.212
ATTTACGG	0.199
AAAGAGGT	-0.0054
ACCACTAT	-0.0739
ACCCAGCG	-0.291
AAGGGATT	-0.169
ACTGAGGA	-0.103
ATTTAGCC	0.107
CCATTTAC	0.0112
ATGATGAA	0.0742
CACATCCC	-0.14
GGCGATAA	-0.0633
AGGCCGAA	0.0167
GACATTAC	0.442
GACGAGGA	0.0929
ACAAGGTG	0.118
CTCTGGTA	0.114
AGCCGTGG	-0.268
AGATCGTC	-0.0524
ACCAACTG	-0.164
TATCGCGA	0.0816
CATAGTGG	-0.235
AGAAGCAG	-0.0206
CCCGAATA	0.055
AAGTAGAC	-0.0005

Sequence	PBM E-score
AAATTATT	0.249
AACCTGAA	-0.226
CATGGCAA	-0.02
TGCTGTAA	0.0524
TTCAACAA	0.074
CCAACTAG	0.00517
GCCGAACA	-0.00806
GGGCTTGA	-0.135
CCAATTGC	-0.189
ACACAGGG	0.02
GGGGATCA	-0.32
ACTTCGGG	0.0559
CAAAGCAC	-0.0075
CTGTCTTC	-0.083
AAAGTCCC	0.344
TAGCGGAA	-0.136
ACAGCTAG	-0.0767
ATCCACTG	0.0323
ACCTTGCT	-0.0572
ATATGGAT	0.0668
CGGCACGC	-0.127
TGCCAAAA	0.135
AAAGTTCA	-0.0151
ACTTTACG	0.0667
GTATTAAC	0.101

Sequence	PBM E-score
CGTGGGAA	-0.0248
GATAGAGC	0.0176
ATGATACC	0.139
AACGCTGC	-0.166
CAAATGTG	0.229
AGGGAGAT	-0.206
AAGTGAAC	0.102
GTGCTCCA	-0.183
ACAAAAGC	0.364
GCACACAA	0.117
AAGTGTCA	-0.00431
GCTCGTAA	-0.154
GCCACTAA	-0.1
ACTCGGCA	0.0864
AATCCAAG	0.0229
TCCGGACA	0.453
TACCTATA	-0.0921
AAGTAAAA	-0.016
CGCCGCCA	-0.18
CCGTACCC	-0.206
AAAACCTA	0.13
AAGCCGAA	0.0864
ACTGACTA	-0.0565
GTTTAATA	0.315
ACCTCTAT	-0.0571

Sequence	PBM E-score
ACCCGAGA	0.0341
CGGTGAGA	-0.0137
AGACCCGG	0.121
ACTGTGCT	-0.0208
CAATACAC	0.117
ATGTCCCG	0.474
GGGCCTAC	-0.328
CACTGGCG	-0.12
CCTACAAA	0.0183
GCACCACC	-0.273
GCCGTAGC	-0.0663
CGTCAGAG	-0.0113
GACGACAA	0.299
AAACGCTA	0.0634
GTGTTACA	0.0825
AGGCGATA	-0.0729
TCACGGAA	0.158
AGCCGCCA	-0.256
CGGGCTCA	-0.289
AAGCATCC	-0.11
CTATTAAG	-0.0541
CTGACAGA	0.104
CGGAGACC	-0.0836
ATTGGAAA	-0.0653
AGTAAAAT	0.131

Sequence	PBM E-score
TATCAATA	0.0939
AACCACAC	-0.00231
CAATGCAA	0.0404
GTACCTTA	0.191
GCCTAACA	0.0762
CCCACTAG	-0.21
GTGAGCTA	-0.182
AAAACGTC	0.271
CACATCGC	-0.14
TATGTACA	0.283
GTCAAAAC	0.12
GATAGTAA	0.089
AGGCCCGC	-0.123
AAAGCCAC	-0.121
CATGAGAC	0.0547
CTCTGAAG	-0.188
CAAGACCG	0.0431
ACTGCCTC	-0.187
TGGCCTAA	-0.0464
AACCGTCT	-0.235
ATCATCCA	-0.126
TGCATCAA	-0.0575
GGCGCATA	-0.0582
ATATAAAG	0.175
CTGGAGAC	-0.112

Sequence	PBM E-score
TGACTGCA	-0.212
AAAGGACG	0.032
AAAAATTG	0.0171
CGACATAG	0.15
TGGCATAA	0.11
GGGGCGAC	-0.156
TCCTGCAA	-0.0304
CGTACGCA	-0.0839
CGTTCTTA	0.0784
CAATGCCA	-0.0168
ACATCGCC	-0.0222
AACCATTC	-0.0452
TAGAAGAA	0.0391
CGCCATAC	-0.0843
CCGAAGTA	0.0599
AGTTTTAT	0.106
CAAATAAC	0.244
AATCAACT	0.139
GATCGCGA	0.14
TGACGAAA	0.0272
CTGTACAA	0.161
TACGGAGA	-0.0508
CCGGTAAG	0.0811
TAACGCGA	0.00871
GCGCTCTA	-0.127

Sequence	PBM E-score
ATGGGGAG	-0.185
GGTTTCGA	0.112
TATCTAAA	0.167
AAAAAGCC	0.0424
AGATTGTA	0.091
ATCTGTAG	-0.185
TACACGGA	0.303
GCCACAGC	-0.179
AAGCGACG	-0.0651
AACTCAAA	0.119
CAGGGCAC	-0.123
GCAGTACC	-0.0294
AGTAATAG	-0.0281
AGGGGCCA	-0.249
CGATGGCC	-0.109
CTCGACTA	0.13
GTAGGTGA	-0.0513
CGTAAGCC	-0.12
TCAGATGA	0.199
AATGGGGG	-0.384
AGTTCGAT	-0.0328
AAGAAAGC	-0.0971
AACTCCGT	0.0904
ACAGCCAT	-0.0135
ACGGTAAG	-0.0433

Sequence	PBM E-score
GCGGGTAC	-0.0187
ACAACACA	0.123
CAACCGAA	0.103
AGAATGGC	-0.00666
TATCCTCA	0.0949
AGGCAACT	0.0171
AACGAAAT	0.18
AAGGGACC	-0.0619
CCTCATAG	-0.181
AACTGTAT	0.126
GCTAGTAC	0.107
CCAGGAAG	-0.0692
TCATCGCA	0.0539
ACTAGCCC	-0.0582
AGAGGCAG	-0.0684
AGGGAGTG	-0.343
AGCACGTG	0.118
AATAGTGA	0.202
CGGCTACC	-0.107
AATGCGTC	0.031
GTTCCTTA	-0.016
ACGGGAAG	-0.163
CAGAGTAA	-0.139
CAGAGATA	0.118
CTGGCTCC	-0.179

Sequence	PBM E-score
AGAGCCTC	-0.172
CATTAGAC	-0.0881
AGAGCGAA	-0.00578
GCTCATGA	-0.0824
GAGGGGTA	-0.236
AGCGAGTA	0.209
AGTGCCAA	-0.0241
GGATGGCC	-0.257
CTGAGACC	-0.18
ACTGGCAC	-0.159
GATCTCAA	0.0276
TATAAATA	0.217
GGGTTTAC	0.0437
ATACCTAA	0.162
ATACGCCG	-0.0566
AATACATA	0.117
AACGGGCG	-0.103
GGTTACAA	0.138
AACCTGCA	-0.131
AAAGCACA	-0.00823
AAACTAGC	-0.0821
GGATAAAC	0.0538
CGCAGGTC	-0.157
CCCCGTGA	-0.135
GAGAATAA	0.128

Sequence	PBM E-score
AAGAAATC	-0.144
ACAGAGCA	0.0247
ACTCATTA	0.0179
GTCCTCGA	0.181
ATATTGCG	0.0632
AATATCTC	0.22
CAACGCGC	0.156
ACGGTGAT	-0.0895
AGCAACAA	0.133
ATCCGTCG	-0.0239
TAATCCCA	-0.206
GATTGGAC	0.109
AATACCCC	-0.107
CGCCTCAG	-0.124
ATTTGATC	-0.0736
CCTAGAAC	0.00465
CCTATCTA	-0.0647
AAAACCAG	0.152
ATGGAATA	0.187
AGTTGGAG	-0.0684
CCACTAAA	-0.146
ACAACGCA	0.098
GAACTGAC	0.0252
CTGGTCTC	-0.149
ACCCATTG	-0.0269

Sequence	PBM E-score
ACGTTGCC	-0.241
GCAACCAC	-0.131
AGTTCGGA	0.158
TGTCTTAA	0.375
ATCACTAC	-0.126
ATTTGCAA	0.103
CCACCTGA	-0.146
ACGGCCTG	0.00794
GGAACGCC	-0.114
AACACCGC	-0.0545
AAAATCAA	0.245
GCAATCTA	0.0427
ACTGCGTG	-0.193
CAGCGATC	-0.0399
TGATAACA	0.134
GCAGCTCA	-0.148
CAGGCGGA	0.223
GTCACTCA	0.132
TAAAGAGA	0.102
AGATAAAT	0.0766
GACACCAC	-0.00303
AATGTAGC	-0.0831
ACATACTC	0.0584
ACGGCAGC	-0.0632
CGTAGTGA	-0.0571

Sequence	PBM E-score
AGGTCGCA	-0.129
GTTTCAAA	0.115
AGGAGGGA	-0.175
TGCAGTAA	-0.117
ACCGTGGG	-0.191
CATCGTGG	-0.16
ACTAGGCA	-0.0969
GTCCGGAA	0.368
ACAGAGAT	0.123
CACGCACG	-0.0776
ATTTTGCC	0.0261
ATTGGGTG	-0.0765
GGTTCGGA	-0.00773
CACGTTGA	0.0175
TCTACAGA	-0.0918
ATGAGCGA	-0.0826
AGCAAACG	-0.143
ATTTAACC	-0.0432
GTTTAGCA	0.0757
AAGCGAGA	-0.127
ACCTCGGA	0.27
GACCCGGC	-0.0896
GCGGCACA	-0.0716
AATAGCAC	-0.265
GCGTAGTA	-0.246

Sequence	PBM E-score
CAAATGAC	0.176
AACTCAAC	0.0188
GCCAGGCC	-0.124
GTCATCAA	0.2
ACCTAAGG	-0.14
ATGGGATG	-0.177
CTGGCACA	-0.0539
ATTTTCGC	0.153
CTAGCCGA	-0.0318
TAACTCCA	-0.193
GCGCCTCC	-0.251
CTTATGGC	0.00332
GTCCAACA	0.249
AAGACCGT	-0.169
AGTCCCGA	0.0579
CTCGCTGC	-0.0928
GGGCTTTA	-0.268
CACTTGTC	0.408
ACGCTGAA	-0.085
AGCATCAA	-0.0363
ACGTCCGG	0.074
AACGTCAT	0.0824
AGTTAGGC	0.00759
TCGTGGAA	0.152
CGAGATTA	0.0953

Sequence	PBM E-score
AAGAAGCC	0.0299
GAGTAATA	0.115
ACATTACT	0.16
AGACTCTC	0.0159
CCATTAAC	0.139
TACCTAAA	0.0221
GGGCGGAC	-0.0714
CTGTGCGC	-0.00307
ATAACTGA	0.112
TGGCACAA	-0.00752
GTTGAAAC	0.135
CTTCACAC	0.184
ATAGTAGG	0.00769
AGGTTCAA	-0.0421
CGTTTTGA	0.218
AGTTGAAA	0.035
CCGACAAG	0.13
CCCTCTCC	-0.287
ATATGTGA	-0.0379
